Measured values: PubChem BioAssay AID1508642 (National Center for Advancing Translational Sciences (NCATS), 2021)
About 200 (0.47%) of roughly 43,000 compounds were called active. This list was built around the results that the source calls inconclusive (neither active nor inactive); the mix of calls is not that of the screen. Calls come from the whole dose curve; as a rule, active = well fitted cell-killing curve with a large enough effect; inconclusive = small, poorly fitted or top-dose-only effect, or effect the other way; inactive = flat fitted curve, though single readings scatter. Potencies of inconclusive entries are doubtful fits and often do not repeat.

Experiment: Cell viability qHTS assay in S16 Pmp22-F2sN cells; note: nearly all actives have a fitted effect of over 65% in size
Details: S16 Pmp22-F2sN Schwann cells (luciferase reporters placed in the Pmp22 gene) viability, CellTiter-Glo, 24 h; activity change, negative = cytotoxicity: at 57.5 µM (top of the series)
Summary of the method: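 Luminescence from CellTiter-Glo, read by CCD camera after a 15 min room-temperature incubation, served as the viability signal. Reporter Schwann cells (S16 Pmp22-F2sN) had been treated with pin-transferred compounds for 24 h at 37C.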
% is set by controls: 0 for no effect and ±100 for the full control effect; potency is the fitted concentration of half-maximal effect; tags give direction and shape of the fitted curve.

Compound	activity change, negative = cytotoxicity	Potency
CCOc1ccc(C(=O)NCC(c2ccc(Cl)cc2)N2CCCCC2)cc1 (configuration not stated)	inactive: 7.82%	–
O=C(NCCc1ccccc1)C1CCN(Cc2cc3ccccc3n2Cc2ccccc2)CC1	–	inconclusive: 39.8 µM [cytotoxic, single point]
COc1ccc(-c2cn3cccnc3n2)cc1NC(=O)Nc1cc(C)ccc1C	–	inconclusive: 39.8 µM [cytotoxic, single point]
Cc1ccc(C)c(N2CCN(S(=O)(=O)c3ccc(-c4cnc(C5CC5)o4)cc3)CC2)c1	–	inconclusive: 17.8 µM [cytotoxic, single point]
O=C(Nc1ccc(C(=O)N2CCN(c3ccccc3F)CC2)cc1)c1nsc2ccccc12	–	inconclusive: 10 µM [cytotoxic, partial curve, poor fit]
CCc1cccc(NC(=O)Cn2c(=O)n(CCC(=O)NCc3ccccc3Cl)c(=O)c3sccc32)c1	–	inconclusive: 14.1 µM [rising, partial curve]
CCCc1ccc(S(=O)(=O)N2CCC(c3nnc(-c4cccc(C)c4)o3)CC2)cc1	–	inconclusive: 28.2 µM [cytotoxic, single point]
COc1ccc(Cl)cc1C(=O)Nc1ccc2nc(Nc3cccc(Cl)c3)cc(C)c2c1	–	inconclusive: 2.51 µM [rising, full curve, poor fit]
CCn1c(=O)c2cc(C(=O)NCCCN3CCN(c4ccc(F)cc4)CC3)sc2c2ccccc21	–	inconclusive: 39.8 µM [cytotoxic, single point]
COc1ccc(C)cc1NC(=O)c1c2c(nc3ccccc13)C(=O)N(C1CCCCC1)C2	–	inconclusive: 28.2 µM [cytotoxic, single point]
CCN(C(=O)CSc1ncc2c(n1)-c1cc(Cl)ccc1N(Cc1ccccc1)S2(=O)=O)c1cccc(C)c1	–	inconclusive: 35.5 µM [cytotoxic, single point]
CCOc1ccc(Br)cc1C1C(C(=O)OC)=C(C)NC2=C1C(=O)c1ccccc12 (configuration not stated)	–	inconclusive: 35.5 µM [cytotoxic, partial curve, poor fit]
Cc1ccc(-n2nc(CO)c(C(=O)NCCCCc3ccccc3)n2)cc1C	inactive: -3.73%	–
COc1ccc(-c2ccc3c(N)c(C(=O)Nc4ccc(C(F)(F)F)cc4)sc3n2)cc1OC	–	inconclusive: 15.8 µM [cytotoxic, partial curve, poor fit]
CCc1ccc(CNC(=O)c2nn(-c3ccc(C)cc3)c(=O)c3c2c2ccccc2n3C)cc1	inactive: 0.14%	–
CCC1CN(S(=O)(=O)c2cc(-c3cc(C)no3)ccc2C)c2cc(C)ccc2O1 (configuration not stated)	–	inconclusive: 39.8 µM [cytotoxic, single point]
O=C(NCCC1=CCCCC1)c1ccc2c(c1)N(Cc1cccc(Cl)c1)C(=O)c1ccccc1S2=O (configuration not stated)	–	inconclusive: 39.8 µM [cytotoxic, partial curve, poor fit]
CC(C)CCNC(=O)Cc1ccc(NC(=O)N2CCCCc3ccccc32)cc1	–	inconclusive: 1 µM [cytotoxic, partial curve, poor fit]
CCOC(=O)c1c(C)[nH]c(C)c1S(=O)(=O)N1CCC(C(=O)Nc2cc(Cl)ccc2OC)CC1	–	inconclusive: 39.8 µM [cytotoxic, single point]

Compound	activity change, negative = cytotoxicity	Potency
CCc1nn2c(=O)cc(COC(=O)COc3ccc(OC)cc3)nc2s1	–	inconclusive: 39.8 µM [cytotoxic, single point]
NC(=O)C1CCN(C(=O)c2ccc(NC(=O)c3nsc4ccccc34)cc2)CC1	–	inconclusive: 25.1 µM [cytotoxic, single point]
CC(=O)c1ccc(NC(=O)c2nc3ccccc3nc2N2CCCCC2)cc1	–	inconclusive: 39.8 µM [cytotoxic, partial curve, poor fit]
COc1ccc(Cn2c(C(=O)O)c(CNCc3ccccc3F)c3ccc(OC)cc32)cc1	–	inconclusive: 31.6 µM [cytotoxic, single point]
CCCSc1ncc(Cl)c(C(=O)Nc2ccc(S(=O)(=O)N(C)c3ccccc3)cc2)n1	inactive: -8.44%	–
CCN(CCCNC(=O)Cn1ncc2c3ccccc3n(C)c2c1=O)Cc1ccccc1	inactive: 3.84%	–
CCc1ccc(NC(=O)N2CCOc3ccc(Cl)cc32)cc1	–	inconclusive: 12.6 µM [cytotoxic, partial curve, poor fit]
Cc1ccc(-c2noc(-c3ccccc3NC(=O)c3ccccc3)n2)cc1	–	inconclusive: 0.447 µM [rising, full curve, poor fit]
CCCCN(CC)C(=O)CSc1nc2n[nH]c(C)c2c(=N)n1-c1cccc(Cl)c1	–	inconclusive: 12.6 µM [cytotoxic, partial curve, poor fit]
CCCCN(CCCC)CCNC(=O)Cn1nc(CC)n2c(cc3sc(C)cc32)c1=O	–	inconclusive: 28.2 µM [cytotoxic, partial curve, poor fit]
CCOC(=O)c1ccc(-n2c(C)nc3c(cnn3-c3ccc(Cl)cc3)c2=O)cc1	–	inconclusive: 17.8 µM [rising, partial curve, poor fit]
COc1cccc(-c2nc(SCC(=O)Nc3ccc4c(c3)OCCO4)c(-c3ccccc3)[nH]2)c1	–	inconclusive: 39.8 µM [cytotoxic, single point]
COc1ccccc1OCCSc1nc2ccccc2n1CC(=O)N1CCOCC1	inactive: 3.89%	–
CC1CCCCN1S(=O)(=O)c1ccc(C(=O)Nc2sc3c(c2C(N)=O)CC(C)(C)NC3(C)C)cc1 (configuration not stated)	–	inconclusive: 28.2 µM [cytotoxic, single point]
O=C(c1cccc(Cl)c1)N1CCN(CCc2ccncc2)CC1	–	inconclusive: 39.8 µM [rising, single point]
COc1ccc(-c2nc(CSc3nncn4c3cc3occc34)c(C)o2)cc1	–	inconclusive: 25.1 µM [cytotoxic, single point]
COc1ccc(C)cc1NC(=O)c1c(C)oc2ncn(CC(C)C)c(=O)c12	–	inconclusive: 28.2 µM [cytotoxic, single point]
COc1ccc(C)c2sc(N(Cc3cccnc3)C(=O)C3CCCCC3)nc12	–	inconclusive: 22.4 µM [cytotoxic, partial curve, poor fit]
